Results taken from article PMC10163088.
No constants are given. Whether binding was seen depends on the method and setting. In cells and extracts the contact can be indirect. Some entries that bind do so weakly or less than the wild type. Tags and fused reporters may be left off the sequences shown. Each block holds one molecule with its values, some of them ahead of it.

Chains of the proteins cited; added tags and fusions are not shown. Lines headed by an entry give the natural chain unless they say otherwise; changes in a name come on top.
UniProt P22579: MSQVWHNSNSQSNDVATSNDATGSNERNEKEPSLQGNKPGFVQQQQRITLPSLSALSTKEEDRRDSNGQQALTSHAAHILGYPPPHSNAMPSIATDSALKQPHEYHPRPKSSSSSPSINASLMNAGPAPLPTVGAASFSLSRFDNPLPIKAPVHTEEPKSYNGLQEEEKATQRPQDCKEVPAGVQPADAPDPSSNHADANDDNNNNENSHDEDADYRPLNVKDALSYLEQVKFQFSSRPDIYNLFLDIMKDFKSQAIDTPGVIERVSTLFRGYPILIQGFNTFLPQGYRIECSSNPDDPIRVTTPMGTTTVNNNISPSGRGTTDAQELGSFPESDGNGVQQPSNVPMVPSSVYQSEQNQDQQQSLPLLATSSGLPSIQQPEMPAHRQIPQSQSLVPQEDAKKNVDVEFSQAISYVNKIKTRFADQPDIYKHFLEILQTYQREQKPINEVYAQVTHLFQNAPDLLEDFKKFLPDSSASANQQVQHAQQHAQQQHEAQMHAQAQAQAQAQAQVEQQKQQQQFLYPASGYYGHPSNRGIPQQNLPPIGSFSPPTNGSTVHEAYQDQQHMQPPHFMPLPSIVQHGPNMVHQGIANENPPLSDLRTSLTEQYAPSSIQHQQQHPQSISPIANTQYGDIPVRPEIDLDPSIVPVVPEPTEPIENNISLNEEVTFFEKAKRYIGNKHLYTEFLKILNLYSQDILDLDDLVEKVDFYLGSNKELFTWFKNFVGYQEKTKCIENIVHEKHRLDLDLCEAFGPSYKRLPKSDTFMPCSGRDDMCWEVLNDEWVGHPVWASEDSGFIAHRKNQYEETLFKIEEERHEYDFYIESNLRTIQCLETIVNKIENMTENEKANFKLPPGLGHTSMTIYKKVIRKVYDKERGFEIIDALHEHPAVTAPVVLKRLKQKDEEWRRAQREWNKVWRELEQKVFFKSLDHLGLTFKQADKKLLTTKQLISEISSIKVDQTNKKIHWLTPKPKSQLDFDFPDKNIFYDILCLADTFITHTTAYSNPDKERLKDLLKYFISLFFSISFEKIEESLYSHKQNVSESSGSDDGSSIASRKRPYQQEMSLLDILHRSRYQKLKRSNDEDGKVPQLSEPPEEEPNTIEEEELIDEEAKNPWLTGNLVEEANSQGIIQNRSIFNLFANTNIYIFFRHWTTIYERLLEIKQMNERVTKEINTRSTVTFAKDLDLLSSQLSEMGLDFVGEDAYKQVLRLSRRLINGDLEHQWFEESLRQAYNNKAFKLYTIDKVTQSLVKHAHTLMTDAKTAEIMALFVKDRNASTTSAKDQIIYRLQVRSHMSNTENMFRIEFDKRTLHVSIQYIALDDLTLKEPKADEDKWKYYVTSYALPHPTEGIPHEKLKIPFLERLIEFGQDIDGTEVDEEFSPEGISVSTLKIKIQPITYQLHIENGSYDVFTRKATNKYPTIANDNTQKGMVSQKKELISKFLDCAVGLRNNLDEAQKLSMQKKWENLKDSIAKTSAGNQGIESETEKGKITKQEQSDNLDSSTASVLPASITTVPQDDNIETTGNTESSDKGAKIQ

Tests used:
[1] = target: T1, GST-Yhp1 (full-length) (S. cerevisiae) (UniProt Q04116); assay: pull-down; GST fusions of repressors (full-length or length variants) immobilised on GSH sepharose, incubated with bacterial total protein extracts containing HA-tagged Sin3, Cyc8 or Tup1 (or Tup1 length variants); elution with free GSH, anti-HA blot (Figs. 1, 3, 4, 5); only the target purified
T1 sequence: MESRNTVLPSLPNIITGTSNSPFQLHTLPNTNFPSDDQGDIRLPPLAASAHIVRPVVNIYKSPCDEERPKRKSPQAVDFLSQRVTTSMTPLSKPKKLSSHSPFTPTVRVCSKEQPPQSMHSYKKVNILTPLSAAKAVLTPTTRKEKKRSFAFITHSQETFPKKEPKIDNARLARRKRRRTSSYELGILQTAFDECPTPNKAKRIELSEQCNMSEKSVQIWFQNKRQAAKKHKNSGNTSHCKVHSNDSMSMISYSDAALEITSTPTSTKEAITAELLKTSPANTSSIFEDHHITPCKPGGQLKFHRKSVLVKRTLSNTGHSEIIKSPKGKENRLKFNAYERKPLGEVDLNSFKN

[2] = target: T2, GST-Rdr1 (full-length) (S. cerevisiae) (UniProt Q08904); assay: as above
T2 sequence: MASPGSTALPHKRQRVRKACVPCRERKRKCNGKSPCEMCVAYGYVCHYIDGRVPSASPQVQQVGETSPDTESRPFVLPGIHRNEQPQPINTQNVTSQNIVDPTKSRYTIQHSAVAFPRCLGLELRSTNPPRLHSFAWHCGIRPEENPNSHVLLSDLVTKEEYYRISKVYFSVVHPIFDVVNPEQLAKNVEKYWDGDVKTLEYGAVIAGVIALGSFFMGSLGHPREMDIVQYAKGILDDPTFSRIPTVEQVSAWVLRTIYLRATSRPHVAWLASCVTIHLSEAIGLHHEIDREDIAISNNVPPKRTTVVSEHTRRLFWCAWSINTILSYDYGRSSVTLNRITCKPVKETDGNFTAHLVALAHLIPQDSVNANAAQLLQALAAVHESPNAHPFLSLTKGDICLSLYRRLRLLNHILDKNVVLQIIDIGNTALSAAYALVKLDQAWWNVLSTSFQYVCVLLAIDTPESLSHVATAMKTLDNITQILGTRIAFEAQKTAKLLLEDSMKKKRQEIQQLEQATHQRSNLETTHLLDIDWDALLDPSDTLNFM

[3] = target: T3, GST-Mot3 (full-length) (S. cerevisiae) (UniProt P54785); assay: pull-down; GST fusions of full-length repressors immobilised on GSH sepharose, incubated with protein extracts from yeast transformants containing epitope-tagged Sin3 length variants; anti-HA blot (Fig. 2); only the target purified
T3 sequence: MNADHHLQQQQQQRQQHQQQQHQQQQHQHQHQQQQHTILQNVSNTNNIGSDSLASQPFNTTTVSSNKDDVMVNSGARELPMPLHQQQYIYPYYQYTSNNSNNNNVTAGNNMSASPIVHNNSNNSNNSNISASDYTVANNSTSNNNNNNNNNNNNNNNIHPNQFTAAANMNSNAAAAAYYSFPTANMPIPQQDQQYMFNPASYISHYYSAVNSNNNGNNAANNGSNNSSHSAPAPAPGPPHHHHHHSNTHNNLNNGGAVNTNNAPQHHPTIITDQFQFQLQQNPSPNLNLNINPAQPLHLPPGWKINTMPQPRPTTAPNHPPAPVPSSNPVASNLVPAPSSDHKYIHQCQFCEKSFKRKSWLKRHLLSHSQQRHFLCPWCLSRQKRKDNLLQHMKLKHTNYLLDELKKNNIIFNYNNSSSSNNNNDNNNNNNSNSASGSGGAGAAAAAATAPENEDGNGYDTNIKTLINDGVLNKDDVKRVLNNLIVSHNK

[4] = target: T4, GST-Sko1 (full-length) (S. cerevisiae) (UniProt Q02100); assay: pull-down; GST fusions of repressors (full-length or length variants) immobilised on GSH sepharose, incubated with bacterial total protein extracts containing HA-tagged Sin3, Cyc8 or Tup1 (or Tup1 length variants); elution with free GSH, anti-HA blot (Figs. 1, 3, 4, 5); only the target purified
T4 sequence: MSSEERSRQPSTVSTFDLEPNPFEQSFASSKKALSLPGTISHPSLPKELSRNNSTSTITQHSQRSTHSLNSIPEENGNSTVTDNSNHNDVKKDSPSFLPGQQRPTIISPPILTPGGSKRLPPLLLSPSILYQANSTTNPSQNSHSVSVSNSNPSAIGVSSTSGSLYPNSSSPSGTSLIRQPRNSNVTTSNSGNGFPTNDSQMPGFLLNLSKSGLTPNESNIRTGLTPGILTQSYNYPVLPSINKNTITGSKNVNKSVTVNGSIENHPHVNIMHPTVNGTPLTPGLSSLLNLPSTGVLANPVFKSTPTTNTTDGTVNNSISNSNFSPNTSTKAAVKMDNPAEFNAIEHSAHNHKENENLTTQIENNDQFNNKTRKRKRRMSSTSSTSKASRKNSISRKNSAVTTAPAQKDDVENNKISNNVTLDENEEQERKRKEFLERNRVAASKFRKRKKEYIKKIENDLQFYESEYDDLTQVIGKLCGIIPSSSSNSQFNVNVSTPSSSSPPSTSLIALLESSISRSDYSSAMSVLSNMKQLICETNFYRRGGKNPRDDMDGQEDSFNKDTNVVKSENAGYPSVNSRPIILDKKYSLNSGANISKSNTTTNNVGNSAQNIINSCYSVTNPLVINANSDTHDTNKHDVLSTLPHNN

binding [1]: binds
binding [2]: binds
Molecule: HA3-Sin3 (full-length, aa 1-1536; pSW11) (from UniProt P22579 1-1536)

binding [3]: binds
Molecule: epitope-tagged Sin3 length variant 301-600 (PAH2; pYJ91) (from UniProt P22579 301-600) (domain or fragment)

B1: HA3-Cyc8 (aa 1-398 with 10 TPR motifs; pFK77) (domain or fragment, UniProt P14922 1-398)
chain: MNPGGEQTIMEQPAQQQQQQQQQQQQQQQQAAVPQQPLDPLTQSTAETWLSIASLAETLGDGDRAAMAYDATLQFNPSSAKALTSLAHLYRSRDMFQRAAELYERALLVNPELSDVWATLGHCYLMLDDLQRAYNAYQQALYHLSNPNVPKLWHGIGILYDRYGSLDYAEEAFAKVLELDPHFEKANEIYFRLGIIYKHQGKWSQALECFRYILPQPPAPLQEWDIWFQLGSVLESMGEWQGAKEAYEHVLAQNQHHAKVLQQLGCLYGMSNVQFYDPQKALDYLLKSLEADPSDATTWYHLGRVHMIRTDYTAAYDAFQQAVNRDSRNPIFWCSIGVLYYQISQYRDALDAYTRAIRLNPYISEVWYDLGTLYETCNNQLSDALDAYKQAARLDVNN
binding [4]: binds
